Measured values from the supplement of paper PMC10126150.
Values marked as one replicate rest on one cluster of the flow cell; about a third of the high ones do not repeat.

These sequences were tested on ATP (assay: switch fluorescence ratio, 500 uM ATP over buffer (Cy3 cluster intensity, sum of 5 cycles each) (fold (ratio)); higher = stronger signal-on switching upon ATP binding; sequences stand for … in TCGTCGGCAGCGTCAGATGTGTATAAGAGACAGTTTTTTTTTTTTTTTTTTTTTTTTT…TC). Settings: aptamer strand: ATP DNA aptamer (quencher-CACCTGGGGGAGTATTGCGGAGGAAGG + anchor), 100 nM annealed; ATP concentration: 500 uM; one replicate.
In short: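 Cy3-labelled switching-strand clusters on a modified Illumina MiSeq flow-cell were annealed to 100 nM quencher-labelled ATP aptamer, imaged in selection buffer, then imaged after 15 min with 500 uM ATP at 22 °C. Five buffer/ATP cycles ran, with NaOH stripping and re-annealing between them. The fluorescence ratio is summed target-cycle over summed buffer-cycle Cy3 intensity per cluster, averaged per switch-domain sequence. Clusters outside 100-1000 RFU were excluded.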
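Also: ATP exposure 15 min at 22 °C before imaging.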

| Sequence | switch fluorescence ratio |
| --- | --- |
| GAAGAAGTC | 0.938 |
| GAAGCACCAT | 1.1 |
| GAAGCTCAAT | 1.06 |
| GAAGGAGGAA | 0.988 |
| GAAGGAGGTC | 1.01 |
| GAAGGATGTG | 1.01 |
| GAAGGCCGCG | 1.02 |
| GAAGGCTGTG | 0.984 |
| GAAGGGGAGT | 0.994 |
| GAAGGGGG | 0.991 |
| GAAGGTCACA | 1.05 |
| GAAGTACAGA | 1.25 |
| GAAGTACCCT | 1.01 |
| GAAGTAGTGT | 0.993 |
| GAAGTATATG | 0.999 |
| GAAGTCTTGG | 0.964 |
| GAAGTGCGTC | 0.968 |
| GAAGTGGCAG | 1.02 |
| GAATACAACA | 1.01 |
| GAATACGCTG | 1.11 |
| GAATACTGAA | 1.03 |
| GAATAGACGG | 1.01 |
| GAATAGTGCG | 1.02 |
| GAATATGGTA | 0.997 |
| GAATCAGTCT | 0.997 |
| GAATCAGTTC | 0.972 |

| Sequence | switch fluorescence ratio |
| --- | --- |
| GAATCCATA | 1.02 |
| GAATCGAGCG | 0.975 |
| GAATCGAGTG | 0.952 |
| GAATCTGCG | 0.971 |
| GAATGAAATA | 0.987 |
| GAATGAATAT | 0.989 |
| GAATGAGGTA | 1.01 |
| GAATGCGGCC | 1.06 |
| GAATGCGT | 1.03 |
| GAATGCTCTC | 0.995 |
| GAATGGACCT | 1.21 |
| GAATGGCCGA | 0.936 |
| GAATGTGACA | 1.03 |
| GAATTATGGG | 1.1 |
| GAATTCCGTT | 1.02 |
| GAATTCTAGT | 1.01 |
| GAATTGATGC | 1.06 |
| GAATTGCGTT | 0.983 |
| GAATTGTATA | 0.953 |
| GAATTTACGT | 1.02 |
| GAATTTCCTT | 1.01 |
| GAATTTGGTC | 0.993 |
| GAATTTTATT | 1.04 |
| GAATTTTTTT | 1.02 |
| GACAAATTCG | 1.03 |
| GACAACAACA | 1.07 |

| Sequence | switch fluorescence ratio |
| --- | --- |
| GACAAGCGG | 1.05 |
| GACAAGTACT | 1.21 |
| GACACCAATG | 0.993 |
| GACACCCAT | 1.17 |
| GACACGGAG | 1.04 |
| GACACGGTG | 1 |
| GACAGCGGAA | 1.05 |
| GACAGCTCAT | 1.01 |
| GACAGCTGGA | 1.06 |
| GACAGGAAAG | 0.977 |
| GACAGGAAGT | 1.01 |
| GACAGGACAG | 0.964 |
| GACAGGCGCT | 1.06 |
| GACAGGCTCA | 1.02 |
| GACAGTCACT | 1.04 |
| GACAGTGGG | 0.997 |
| GACATATGGC | 1.14 |
| GACATCACGA | 1.41 |
| GACATCCGT | 1.01 |
| GACATGACGA | 1.39 |
| GACATGTTCA | 1.04 |
| GACATTGCGA | 0.99 |
| GACATTGTTT | 1.02 |
| GACATTTGTC | 1.01 |
| GACCACGTTA | 1.18 |
| GACCAGTGTG | 1.14 |

| Sequence | switch fluorescence ratio |
| --- | --- |
| GACCCAGAG | 1 |
| GACCCCCCAT | 1.33 |
| GACCTATGCT | 0.996 |
| GACCTCATAC | 2.18 |
| GACCTCCGTT | 2.49 |
| GACCTGACTC | 2.28 |
| GACCTGCCAT | 1.12 |
| GACGAACGTC | 0.969 |
| GACGAAGTCA | 1.05 |
| GACGACCCAG | 1.05 |
| GACGACCCTT | 1.43 |
| GACGACGCCG | 1.07 |
| GACGAGCTCT | 1.05 |
| GACGAGGGTG | 1.07 |
| GACGCAGGGA | 2.3 |
| GACGCGCAAA | 1.19 |
| GACGCTGACC | 3.45 |
| GACGCTTATG | 0.996 |
| GACGGAGAGG | 1.01 |
| GACGGCGTTT | 1.43 |
| GACGGGACAG | 1.08 |
| GACGGGATCG | 0.832 |
| GACGGGATG | 0.934 |
| GACGGGTATT | 1.02 |
| GACGGGTCAA | 0.984 |
| GACGGGTCGT | 0.978 |

| Sequence | switch fluorescence ratio |
| --- | --- |
| GACGGTAAAT | 1.17 |
| GACGGTGTCA | 1 |
| GACGGTTACT | 1.18 |
| GACGTAGGGT | 1.34 |
| GACGTATAGA | 1.06 |
| GACGTCAGCT | 1.01 |
| GACGTGCGGA | 1 |
| GACGTGCTCC | 1.65 |
| GACTAGCCGT | 1.01 |
| GACTAGGTAT | 0.999 |
| GACTAGTT | 1.02 |
| GACTATCATA | 1.1 |
| GACTCGCGCG | 0.975 |
| GACTCTAGAT | 1.08 |
| GACTGAAGCA | 1.28 |
| GACTGAGGG | 0.991 |
| GACTGATTAT | 0.994 |
| GACTGCGGTG | 0.993 |
| GACTGGCGAG | 1.03 |
| GACTGGCGCG | 1 |
| GACTGGGATA | 1.01 |
| GACTGGGCTC | 1.01 |
| GACTGGGTGC | 1.15 |
| GACTGGTGAC | 1.07 |
| GACTGGTGCG | 1.02 |
| GACTGTCGCT | 0.927 |

| Sequence | switch fluorescence ratio |
| --- | --- |
| GACTGTTATT | 1.06 |
| GACTTAAGAT | 0.976 |
| GACTTATACC | 1.11 |
| GACTTATAGT | 0.973 |
| GACTTGGCAT | 1.03 |
| GACTTGGTAT | 0.993 |
| GACTTTAAA | 0.989 |
| GAGAAAAGCT | 1.04 |
| GAGAAAGACG | 0.982 |
| GAGAAATCCA | 1.02 |
| GAGAACCCGT | 0.967 |
| GAGAATAACA | 1 |
| GAGAATCCAT | 1.02 |
| GAGAATGAGT | 0.998 |
| GAGACAGAGG | 0.982 |
| GAGACAGGCG | 0.965 |
| GAGACAGGGT | 0.983 |
| GAGACCCAGT | 1 |
| GAGACCTATG | 0.976 |
| GAGACGCAGG | 0.984 |
| GAGACGGTTC | 1.04 |
| GAGACTAATT | 1.05 |
| GAGAGAATG | 1 |
| GAGAGAGCC | 0.961 |
| GAGAGAGCCA | 0.989 |
| GAGAGCAAT | 4.12 |

| Sequence | switch fluorescence ratio |
| --- | --- |
| GAGAGCCCGG | 1.02 |
| GAGAGGAGG | 1.01 |
| GAGAGTGAGA | 0.985 |
| GAGATAAGTT | 0.97 |
| GAGATACG | 1.02 |
| GAGATAGACC | 1.01 |
| GAGATCCTAT | 0.989 |
| GAGATCTCAC | 0.982 |
| GAGATGGAGC | 0.974 |
| GAGATGTGTT | 0.979 |
| GAGATTACAG | 0.989 |
| GAGATTCAAT | 1.01 |
| GAGCACGCAA | 4.95 |
| GAGCAGGCCA | 1.18 |
| GAGCAGGGAT | 1.06 |
| GAGCAGTGGG | 1.01 |
| GAGCATGGAG | 0.992 |
| GAGCATTATC | 1.56 |
| GAGCCAAATG | 0.978 |
| GAGCCAATTC | 1.71 |
| GAGCCAGGCC | 0.999 |
| GAGCCCCTGA | 1.01 |
| GAGCCGATAC | 4.7 |
| GAGCCTCAAT | 1.08 |
| GAGCCTGCCA | 0.937 |
| GAGCGAACGA | 1.08 |

| Sequence | switch fluorescence ratio |
| --- | --- |
| GAGCGAGAGG | 0.995 |
| GAGCGAGATG | 1.03 |
| GAGCGCGTTG | 0.972 |
| GAGCGCTAAA | 1.04 |
| GAGCGGGTGG | 1.09 |
| GAGCGTAGTT | 0.979 |
| GAGCGTGCTT | 1.02 |
| GAGCGTGGTT | 1 |
| GAGCTATCTC | 1.12 |
| GAGCTCACGT | 1 |
| GAGCTCCAGT | 0.99 |
| GAGCTCCTCT | 1.01 |
| GAGCTGAGGT | 1.03 |
| GAGCTGTTTT | 1.03 |
| GAGCTTCGAA | 0.981 |
| GAGCTTCTAT | 0.967 |
| GAGGAAGGA | 1.02 |
| GAGGAATGTA | 0.978 |
| GAGGACAGGA | 0.997 |
